Assay results published in PubChem BioAssay AID540317 (National Center for Advancing Translational Sciences (NCATS), 2011).
The whole screen tested about 390,000 compounds, of which about 2,200 (0.56%) were called active. Inconclusive results, whose numbers are uncertain, are shown with a selection of clear calls. Calls follow the shape of the dose curve; as a rule, active = well fitted inhibition curve with a large enough effect; inconclusive = small, poorly fitted or top-dose-only effect; inactive = no such curve, though single readings can be large or run the other way. Potencies of inconclusive entries are doubtful fits and often do not repeat.

These molecules were tested against Chromobox protein homolog 1 (Homo sapiens) (UniProt P83916) (assay: HTS for Inhibitors of HP1-beta Chromodomain Interactions with Methylated Histone Tails). Conditions: AlphaScreen HP1-beta / biotin-H3K9me3 peptide binding; series mostly up to 114 µM; activity change, negative = inhibition: at the top concentration.
Outline: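 Compound inhibition of the preformed complex between 50 nM HP1-beta and 50 nM biotinylated H3K9me3 peptide was read by AlphaScreen. Buffer was PBS pH 7.4 with 0.01% Tween-20. Incubations ran 30 min at room temperature, with 10 ug/mL donor/acceptor beads.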
Also: nearly all actives have a fitted effect of over 70% in size.
Potency is read from the fitted curve at half-maximal effect; tags tell the direction and shape of the fitted curve.

UniProt P83916, sequence (P83916 whole entry, looked up): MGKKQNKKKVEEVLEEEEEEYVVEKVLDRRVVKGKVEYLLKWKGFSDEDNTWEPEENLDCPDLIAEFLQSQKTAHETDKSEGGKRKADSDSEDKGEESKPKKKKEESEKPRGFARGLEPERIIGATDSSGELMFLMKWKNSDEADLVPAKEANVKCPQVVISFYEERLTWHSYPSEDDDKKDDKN

Structure (SMILES) | Potency | activity change, negative = inhibition
Oc1ccc(-c2csc(-c3cccnc3)n2)cc1O | active: 79.4 µM | –
Cc1sc(NC(=O)c2ccco2)c(C(c2ccc(F)cc2)N2CCN(C)CC2)c1C (stereo unspecified) | inconclusive: 39.8 µM [inhibitor, partial curve] | –
O=S(=O)(c1ccc(F)cc1)N1CCN(CC2CC3C=CC2C3)CC1 (stereo unspecified) | inconclusive: 70.8 µM [inhibitor, partial curve] | –
CCn1c(N)c(C(=O)NCCCOC)sc1=S | active: 50.1 µM | –
S=C(NCCc1ccccc1)N1CCN(Cc2ccccc2)CC1 | inconclusive: 15.8 µM [inhibitor, full curve, poor fit] | –
O=C(O)c1cc(S(=O)(=O)N2CCN(C(c3ccccc3)c3ccccc3)CC2)ccc1Cl | – | inactive: 25.4%
COc1ccc(OC)c(S(=O)(=O)Oc2ccc(N)c3ccccc23)c1 | inconclusive: 28.2 µM [inhibitor, partial curve, poor fit] | –
Cc1ccc(CN2CCSCC2)cc1 | inconclusive: 56.2 µM [inhibitor, single point] | –
Oc1ccc(N2CCN(c3ccnc4cc(Cl)ccc34)CC2)cc1 | inconclusive: 56.2 µM [inhibitor, partial curve, poor fit] | –
CCOC(=O)CCCCCC(=O)Nc1ccc2c(c1)CC(=O)N([C@@H](C)CO)C[C@@H](C)[C@@H](CN(C)C(=O)Nc1ccc(C(F)(F)F)cc1)O2 | – | inactive: 52.3%
COc1ccc(Br)cc1CN1CCN(C(=O)c2cccc(OC)c2OC)CC1 | inconclusive: 50.1 µM [inhibitor, partial curve] | –
COc1ccc(N2CCN(c3nc4c(c(=O)n(C)c(=O)n4C)n3Cc3ccccc3)CC2)cc1 | inconclusive: 56.2 µM [inhibitor, single point] | –
Cc1cc(C(=O)CSc2nnc(N)s2)c(C)n1C1CC1 | – | inactive: 21.6%
COc1ccc(N2CCN(C(c3ccccc3)c3nnc(-c4ccccc4Cl)o3)CC2)cc1 (stereo unspecified) | inconclusive: 22.4 µM [inhibitor, full curve] | –
Cc1cc2ccccn2c1C(=O)c1ccc(NN)c([N+](=O)[O-])c1 | active: 31.6 µM | –
CCOC(=O)c1c(NC(=O)c2cc(-c3ccccc3)on2)sc2c1CCCC2 | – | inactive: 36.9%
O=C(CC1SC(N2CCCC2)=NC1=O)Nc1ccc(C(=O)NCCOc2ccccc2F)cc1 (stereo unspecified) | – | inactive: 15.9%
CCOC(=O)C1=C(C)N(CC(C)C)C(=O)/C1=C\c1cccs1 | inconclusive: 22.4 µM [inhibitor, partial curve] | –
COc1ccc(C(=O)/C(=C/c2cccs2)c2nc3ccccc3o2)cc1 | inconclusive: 20 µM [inhibitor, full curve] | –
Cc1ccc(OCC(O)CN2CC3(C)CC2CC(C)(C)C3)cc1 (stereo unspecified) | inconclusive: 11.2 µM [inhibitor, partial curve, poor fit] | –
Fc1ccccc1N1CCN(CC2CC3C=CC2C3)CC1 (stereo unspecified) | inconclusive: 28.2 µM [inhibitor, full curve, poor fit] | –
CN(/N=C\c1ccc(O)c(O)c1)c1nc(-c2ccccc2)cc(-c2ccccc2)n1 | inconclusive: 44.7 µM [inhibitor, partial curve] | –
CC(C)c1ccc(C2CC(=O)N3CN(C)CSC3=C2C#N)cc1 (stereo unspecified) | inconclusive: 15.8 µM [inhibitor, full curve] | –
Cn1c(=O)oc2cc(S(=O)(=O)NCCC(=O)Nc3ccc(F)c(Cl)c3)ccc21 | – | inactive: 33.2%

Structure (SMILES) | Potency | activity change, negative = inhibition
O=C(NCCCCC(NC(=O)c1ccc([N+](=O)[O-])cc1)C(=O)O)c1ccc([N+](=O)[O-])cc1 (stereo unspecified) | inconclusive: 89.1 µM [inhibitor, single point] | –
COc1ccc(N2CCN(c3cc(C)c4ccccc4n3)CC2)cc1 | inconclusive: 44.7 µM [inhibitor, partial curve] | –
Cc1ccc(S(=O)(=O)NNC(=O)c2cccc(O)c2)cc1 | – | inactive: 38.5%
COc1ccc(/C=C(\NC(=O)c2ccccc2)C(=O)OC[C@@H]2CCC[N+]3(C)CCCCC23)cc1OC (stereo partly specified) | inconclusive: 89.1 µM [inhibitor, single point] | –
O=C(CNCc1ccc(Cl)cc1)Nc1ccc2c(c1)OCCO2 | inconclusive: 20 µM [inhibitor, full curve] | –
CCOc1ccc(N2C(=O)/C(=C/c3ccc(C)o3)N(C)C2=S)cc1 | inconclusive: 25.1 µM [inhibitor, partial curve] | –
Nc1ncnc2c1c(-c1ccc(Oc3ccccc3)cc1)cn2C1CCCC1 | inconclusive: 39.8 µM [inhibitor, partial curve, poor fit] | –
O=C(c1nc(-c2ccc(Cl)cc2)n2c1CCCCC2)N1CCN(c2ccc(F)cc2)CC1 | inconclusive: 31.6 µM [inhibitor, partial curve] | –
O=C(Cc1cccs1)N(Cc1ccco1)C1(C(=O)NC2CCCCC2)CCCCC1 | inconclusive: 39.8 µM [inhibitor, single point] | –
COc1ccc(-c2cc(-c3ccccc3)nc(SC(C)C(=O)O)c2C#N)cc1 (stereo unspecified) | – | inactive: 3.79%
C=CCn1c(N)c(C(=O)Nc2ccccc2OC)sc1=S | inconclusive: 44.7 µM [inhibitor, partial curve] | –
O=C(NCC1(c2ccccc2)CCCC1)C(=O)Nc1cccc(C(F)(F)F)c1 | – | inactive: 37.7%
CCC1=C/C(=C/N(C)c2ccccc2)C(=O)S1 | inconclusive: 15.8 µM [inhibitor, full curve, poor fit] | –
COC(=O)c1ccccc1NC1=C/C(=N\S(=O)(=O)c2ccc(C(=O)O)cc2)c2ccccc2C1=O | active: 15.8 µM | –
O=C(CN1C(=O)CSC1=O)Nc1ccc(F)c(F)c1F | inconclusive: 39.8 µM [inhibitor, single point] | –
O=C(NNS(=O)(=O)c1ccccc1[N+](=O)[O-])c1ccc(O)cc1 | inconclusive: 28.2 µM [inhibitor, single point] | –
O=C(N/N=C/c1cc(Br)c(O)c(Br)c1)c1cc2c(ccc3ccccc32)o1 | inconclusive: 89.1 µM [inhibitor, single point] | –
CCOC(=O)COn1c(-n2nc(C)cc2C)nc2ccccc2c1=O | – | inactive: 7.03%
CCOC(=O)C1CCCN(Cc2cc(Br)c(OC)cc2OC)C1 (stereo unspecified) | inconclusive: 28.2 µM [inhibitor, partial curve, poor fit] | –
Cc1ccc(S(=O)(=O)N2CCCNCC2)cc1 | – | inactive: 25%
CC(OC(=O)CC1CC2CCC1C2)C(=O)Nc1ccc(C(N)=O)cc1 (stereo unspecified) | – | inactive: 37.4%
Cc1ccc(C(=O)Nc2ccc(N3CCCC3)cc2)c(C)c1 | inconclusive: 28.2 µM [inhibitor, partial curve] | –
COc1ccc(OC)c(S(=O)(=O)N2Cc3ccccc3CC2C(=O)Nc2ccc(C(C)=O)cc2)c1 (stereo unspecified) | – | inactive: -4.21%
c1ccc(-[n+]2nc(Nc3cccc4ccccc34)sc2-c2c3ccccc3cc3ccccc23)cc1 | inconclusive: 3.55 µM [inhibitor, full curve] | –

Structure (SMILES) | Potency | activity change, negative = inhibition
CC(C)Cn1c(=O)c2ccccc2n2c(-c3ccc(Br)cc3)nnc12 | – | inactive: -13%
Cc1ccc(-n2sc3ccccc3c2=O)cc1S(=O)(=O)N1CCCCC1 | inconclusive: 3.55 µM [inhibitor, full curve] | –
Cc1cc(C(=O)NCC(C)C)c2ccccc2n1 | – | inactive: 11%
Cc1cccc(S(=O)C(c2ccccc2)c2ccccc2)c1 (stereo unspecified) | – | inactive: 41.7%
O=c1c2cc(O)c(O)cc2oc2cc(O)c(C3OC(CO)C(O)C(O)C3O)c(O)c12 (stereo unspecified) | inconclusive: 7.94 µM [inhibitor, full curve, poor fit] | –
C=CCNc1nc(-c2ccccn2)nnc1-c1ccccc1 | – | inactive: 46.2%
COC(=O)[C@H](C)NC(=O)c1cc2c(cn1)[nH]c1ccccc12 | inconclusive: 28.2 µM [inhibitor, partial curve, poor fit] | –
COc1ccc(C(C(=O)NC2CCCCC2)N(C(=O)c2snc(C(N)=O)c2N)c2ccc(OC)cc2OC)cc1 (stereo unspecified) | – | inactive: 49.5%
CCOc1ccc(Nc2nc(-c3sc(N)nc3C)cs2)cc1 | inconclusive: 20 µM [inhibitor, full curve] | –
COc1ccc(/C=C/C2=CC(C)(C)NC(=S)N2)c(OC)c1 | inconclusive: 50.1 µM [inhibitor, partial curve] | –
CCN1C(=O)/C(=C2\C=Cc3ccccc3N2CC)SC1=S | active: 3.16 µM | –
COc1ccc(CCN(C)C2CCCN(C(=O)c3sccc3C)C2)cc1OC (stereo unspecified) | – | inactive: 18.9%
Cc1[nH]n(-c2ccccc2)c(=O)c1C=Nc1ccc(S(=O)(=O)NC(N)=O)cc1 | – | inactive: 43.1%
CCc1ccccc1OCCCCN1CCCCC1 | inconclusive: 56.2 µM [inhibitor, single point] | –
Cc1cc(/C=C(\C#N)C(=O)O)c(C)n1CC1CCCO1 (stereo unspecified) | inconclusive: 5.01 µM [inhibitor, full curve] | –
O=C(c1ccc(COc2ccccc2Cl)o1)N1CCN(Cc2ccc3c(c2)OCO3)CC1 | inconclusive: 15.8 µM [inhibitor, partial curve, poor fit] | –
C/C(O)=c1/ccc2cccc3nc(C)nc1c23 | – | inactive: 58%
CN1/C(=C\C(=O)c2ccco2)C(C)(C)c2ccccc21 | – | inactive: 62.4%
CCOc1cc(NS(=O)(=O)c2ccc(NC(C)=O)cc2)c(OCC)cc1NC(=O)c1cccs1 | – | inactive: 24.1%
COc1cccc(-n2c(N)c(-c3nc4ccccc4[nH]3)sc2=S)c1 | inconclusive: 20 µM [inhibitor, partial curve, poor fit] | –
CCOC(=O)c1c(N)sc(C(=O)Nc2ccc3c(c2)OCO3)c1C | – | inactive: 4.05%
CCCCNC(=S)N1CCN(CC)CC1 | inconclusive: 31.6 µM [inhibitor, partial curve] | –
CC1CCN(C(=O)CN2C(=O)C(=O)N(C(C)C)C2=O)c2ccccc2S1 (stereo unspecified) | inconclusive: 89.1 µM [inhibitor, single point] | –
